Results on 109 sequences are retold here after paper PMC6212790.

This is one part of the list. At the low end of the ranking the order means little.

In this assay the target is T1, GST-Rok-C97-191 (UniProt O34857).
T1 sequence: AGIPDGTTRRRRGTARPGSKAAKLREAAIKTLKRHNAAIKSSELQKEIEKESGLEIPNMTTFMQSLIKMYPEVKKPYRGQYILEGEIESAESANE
Kind of assay: protein binding microarray.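 Also: rank score from −0.5 (least bound) to 0.5 (best bound).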 To be noted: Rok is a gene silencer of Bacillus subtilis; high values mean tight binding; most listed sequences are background and not binding sites; double strand, one strand shown.
TGCCGCAA yielded a binding signal of 0.018 E-score.

As to ACTCATCC, the binding signal stood at 0.00841 E-score. The sequence AGGACTGC showed a binding signal of -0.305 E-score. The sequence AGCTTTCA returned a binding signal of -0.158 E-score. CACTATGA returned a binding signal of -0.0111 E-score.

Consider CGGTACTA, for which the binding signal stood at 0.257 E-score. On to GGACGACA, for which the binding signal is 0.000282 E-score. As to CAGGCGAC, the binding signal was -0.00727 E-score. The sequence ACATAGTC displayed a binding signal of 0.179 E-score. TCATAGAA returned a binding signal of 0.0351 E-score.

Regarding CGATACAC, the binding signal stood at 0.155 E-score. As to TAGATGAA, the binding signal came to 0.131 E-score. In the case of CACATGCG, the binding signal was -0.174 E-score. On to AATGCATA, for which the binding signal is 0.0752 E-score. With ACAGGTTA, the binding signal was found to be 0.0291 E-score. GCCGACGC yielded a binding signal of -0.161 E-score. For TGCCACCA, the binding signal is -0.151 E-score.

With ATCTTGCG, the binding signal is -0.213 E-score. For CACGGGGG, the binding signal is -0.331 E-score. In the case of TCAAGACA, the binding signal was -0.19 E-score.

Take ATCGCCGC: the binding signal is -0.0266 E-score. Sequence AACATGTC yielded a binding signal of -0.039 E-score. As for ATATCAAG, the binding signal was 0.127 E-score. Consider CTCCTAGC, for which the binding signal came to 0.0828 E-score. ATTTTAAG: the binding signal was determined as 0.142 E-score. With GCGAACAC, the binding signal was -0.259 E-score. ACAAGTAA showed a binding signal of 0.247 E-score. The sequence CTGTCGAC showed a binding signal of -0.044 E-score.

AACGTGAC showed a binding signal of -0.0729 E-score. TGAATCCA came in with a binding signal of 0.0381 E-score. Sequence AGAAAATA showed a binding signal of 0.342 E-score. As to GGAGCTCA, the binding signal was -0.0848 E-score. For the sequence GTAATTTA, the binding signal amounted to 0.353 E-score. AATACTCT returned a binding signal of 0.131 E-score. For CCGGTAGC the value was 0.0727 E-score. The sequence AAACCGCC had a binding signal of -0.208 E-score. With AAAAGAAC the figure was -0.1 E-score; with ACAGGTGA, 0.0974 E-score; with GAGGGATC, -0.17 E-score. GCGTCCAA: the binding signal is -0.0249 E-score. The sequence CTCTGAAG had a binding signal of -0.19 E-score. AGCATCTC registered a binding signal of -0.0616 E-score. For ATAAGAGA, the binding signal was -0.0534 E-score. AGTTATAC showed a binding signal of 0.241 E-score. For GTCGTGCA, the binding signal was -0.00336 E-score. CTGTCCCC yielded a binding signal of -0.191 E-score. Regarding ACGAGTAG, the binding signal was -0.0374 E-score. With AAATGGCT, the binding signal is -0.0734 E-score. With ACCAAAGG the figure was -0.141 E-score; with CTGCCTCC, -0.356 E-score; with ATCCTCGG, -0.269 E-score.

For the sequence CGTACTAG, the binding signal came out at 0.0424 E-score. For ATACATGA the value was 0.268 E-score. As to CTGGGTGA, the binding signal is -0.322 E-score. For CGGACCAC the value was -0.143 E-score; for ACCTAGGA, 0.0393 E-score; for GCCTCCGA, -0.282 E-score. As for CTGCGGGC, the binding signal was -0.131 E-score. Consider GTAGGAGA, for which the binding signal was 0.0828 E-score.

AGACCGTG had a binding signal of -0.0894 E-score.

ATCACGCC: the binding signal was -0.135 E-score. For the sequence ATTCCGCC, the binding signal was -0.115 E-score.

The sequence AATCGTGA came in with a binding signal of -0.118 E-score. With TATACCCA the figure was 0.112 E-score; with CAGTTAAC, 0.0265 E-score. The sequence TAACTGTA showed a binding signal of 0.255 E-score.

The sequence GTCAATGA gave a binding signal of -0.108 E-score. For ACAGTGCT the value was -0.159 E-score; for GCATACAC, 0.0144 E-score; for AGAACGCT, 0.0663 E-score. For CACACGGG, the binding signal was -0.16 E-score.

GCGGCCAC had a binding signal of -0.254 E-score. For GTCATCAA, the binding signal was -0.132 E-score. With CCCACGAG, the binding signal is -0.091 E-score. In the case of CGTTAAAC, the binding signal was -0.0286 E-score. Take CGTATGTC: the binding signal was -0.0562 E-score. For CCTTGTAG the value was 0.0318 E-score. As to CAGCAGAG, the binding signal was -0.296 E-score.

GGCTACAA yielded a binding signal of 0.0734 E-score. ACTGGCAA showed a binding signal of -0.109 E-score. In turn, ACCTCAAG showed a binding signal of 0.0574 E-score. Sequence AGCCTAGA returned a binding signal of -0.124 E-score. The sequence CAAGGGTG gave a binding signal of -0.101 E-score. AGGGTCCG gave a binding signal of -0.242 E-score. Consider CCCAGCCA, for which the binding signal was -0.271 E-score. As to ACGTCTCG, the binding signal was -0.139 E-score. CTCACCAG displayed a binding signal of -0.245 E-score. CCTAGCGC: the binding signal is 0.0615 E-score. As for AATGCCAG, the binding signal was 0.0127 E-score.

CCATCGAG had a binding signal of 0.015 E-score. CGACGTAC registered a binding signal of -0.0738 E-score. On to AGGCGTCA, for which the binding signal is -0.251 E-score.

In turn, CCGGACAG had a binding signal of -0.0562 E-score. ACTGCGCC gave a binding signal of -0.196 E-score. Sequence AGATGCAG yielded a binding signal of -0.133 E-score.

Turning to GAACATAA, the binding signal turned out to be 0.144 E-score.

Turning to GCTTAAAA, the binding signal is -0.0304 E-score.

The sequence ACCTGGCC showed a binding signal of -0.175 E-score. In the case of AAAAAGCC, the binding signal is -0.198 E-score. The sequence ATAGACGA had a binding signal of -0.0484 E-score.

ACCCCCGG had a binding signal of -0.103 E-score. CGTAACTA: the binding signal worked out at 0.314 E-score. CATTGGAC returned a binding signal of -0.155 E-score. With ATCGTTGA the figure was -0.0991 E-score. With CCTTAGCC the figure was -0.241 E-score. For ATTACTTA the value was 0.2 E-score; for AATAAGTC, 0.139 E-score; for CTGCTTCC, -0.102 E-score. Turning to GGAGCAAA, the binding signal is -0.109 E-score.
